# Results reported in PubChem BioAssay AID588855 (National Center for Advancing Translational Sciences (NCATS), 2011).
# About 5,000 (1.2%) of roughly 410,000 compounds were called active. This list was built around the results that the source calls inconclusive (neither active nor inactive); the mix of calls is not that of the screen. Calls come from the whole dose curve; as a rule, active = well fitted inhibition curve with a large enough effect; inconclusive = small, poorly fitted or top-dose-only effect; inactive = no such curve, though single readings can be large or run the other way. Potencies beside an inconclusive call are fits to weak or partial responses and may not hold up.
# Experiment: qHTS for Inhibitors of TGF-b; note: nearly all actives have a fitted effect of over 65% in size
# Conditions: HepG2 CAGA-GFP TGF-b/SMAD3 reporter, GFP fluorescence, 18 h, TGF-beta stimulated, 500 pg/mL final; series mostly up to 46.1 µM; activity, negative = inhibition: at the top concentration
# Outline: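 Inhibition was scored as loss of TGF-beta-induced (500 pg/mL final, 18 hours, 37 degrees C) GFP in HEPG2 cells carrying a CAGA-GFP reporter, in DMEM with 1% FBS. Well GFP was summed per cell; Activity was normalised to unstimulated and stimulated DMSO wells, then concentration-response fitting.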
# % is set by controls: 0 for no effect and ±100 for the full control effect; potency is the fitted concentration of half-maximal effect; tags give direction and shape of the fitted curve.
SMILES,Potency,"activity, negative = inhibition"
Cc1ccc(-c2nn3c(C)nnc3s2)cc1NC(=O)c1ccc(-c2ccc(Cl)cc2Cl)o1,"inconclusive: 2.51 µM [inhibitor, full curve, poor fit]",–
CCn1c(-c2ccc(S(=O)(=O)N3CCOCC3)cc2)csc1=Nc1ccc(C)c(Cl)c1,–,inactive: -17.2%
O=C(CSc1nnc2[nH]c(=O)cc(-c3ccccc3)n12)Nc1ccc(F)cc1F,–,inactive: -10.1%
COc1cc2cc(-c3ccc(OC)c(OC)c3C)nc(N)c2cc1OC,"inconclusive: 7.94 µM [inhibitor, partial curve, poor fit]",–
Cc1cc(C(=O)Oc2cccnc2)ccc1[N+](=O)[O-],–,inactive: -3.16%
Cc1ccc(-c2nnc(N3CCC(C)CC3)c3ccccc23)cc1C,"inconclusive: 35.5 µM [inhibitor, single point]",–
Cc1ccnc(NC(=O)c2sc3ccccc3c2Cl)c1,"inconclusive: 3.98 µM [inhibitor, single point]",–
Cc1ccc(NC(=O)CSCC(=O)Nc2ccccc2N2CCCCC2)cc1,"inconclusive: 35.5 µM [inhibitor, single point]",–
CCCCCc1ccc(C(=O)CCC(=O)OCC(=O)N(CC)c2c(N)n(Cc3ccccc3)c(=O)[nH]c2=O)cc1,"inconclusive: 35.5 µM [inhibitor, single point]",–
Cc1ccn2c(-c3csc(Nc4ccc(C(=O)O)cc4)n3)c(C)nc2c1,–,inactive: -5.02%
CC1CCN(c2ccc(NC(=O)c3ccc([N+](=O)[O-])o3)cc2)CC1,"inconclusive: 17.8 µM [inhibitor, partial curve, poor fit]",–
CC(C)(C)[C@H]1COC(=O)CCC/C=C/C[C@H](CC(=O)NCCO)C(=O)N1,"inconclusive: 14.1 µM [inhibitor, single point]",–
CCCn1c(-c2cccc(Br)c2)nc2ccccc21,–,inactive: -12.6%
CCN(CC(=O)Nc1ccc2c(c1)OCCO2)C(=O)c1cc(Cl)nc2ccccc12,–,inactive: 6.62%
Cn1c(CSCc2ccccc2Cl)nnc1SCC(=O)Nc1nccs1,"inconclusive: 31.6 µM [inhibitor, single point]",–
COc1cccc2sc(N(CCN(C)C)C(=O)/C=C/c3cccs3)nc12,"inconclusive: 15.8 µM [inhibitor, single point]",–
Cc1cc(NC(=O)COc2ccccc2)cc(-c2nc3ccccc3o2)c1O,–,inactive: 6.51%
O=c1c2ccccc2sn1-c1ccc(F)cc1,active: 10 µM,–
COc1ccc(NC(=O)CCNC(=O)N2CC(=O)Nc3ccccc32)c(OC)c1,"inconclusive: 28.2 µM [inhibitor, single point]",–
COc1ccccc1NS(=O)(=O)c1ccc2oc(SC3CCOC3=O)nc2c1 (stereo unspecified),"inconclusive: 10 µM [inhibitor, partial curve, poor fit]",–
C[C@@H]1C=C[C@](Cc2ccccc2)(C(=O)NCCc2c[nH]c3ccccc23)N1C(=O)c1ccccc1,"inconclusive: 35.5 µM [inhibitor, single point]",–
CN(CC1CCOCC1)C(=O)CC1C(=O)NCCN1Cc1cccc(C(F)(F)F)c1 (stereo unspecified),–,inactive: 9.67%
Cc1ccc(C(=O)NC(=S)NCCCN2CCOCC2)cc1,"inconclusive: 5.62 µM [inhibitor, single point]",–

SMILES,Potency,"activity, negative = inhibition"
O=S1(=O)CCO[C@H]2Cc3ccccc3[C@H]2N1Cc1cccc(Cl)c1,"inconclusive: 10 µM [inhibitor, partial curve, poor fit]",–
O=C1CCc2cc(NS(=O)(=O)c3ccc([N+](=O)[O-])cc3)cc3c2N1CCC3,"inconclusive: 35.5 µM [inhibitor, single point]",–
CC(C)CN(Cc1cc(=O)oc2cc(-c3ccccc3)c(O)cc12)CC(C)C,"inconclusive: 22.4 µM [inhibitor, single point]",–
CCOc1ccc(-n2ccnc2SCC(=O)Nc2cccc3ccccc23)cc1,–,inactive: -4.74%
COc1ccc(OC)c(NC(=O)c2cc(-c3cc(C)c(C)cc3O)n[nH]2)c1,"inconclusive: 35.5 µM [inhibitor, single point]",–
S=C(NCc1cccs1)Nc1cccc(Cl)c1,"inconclusive: 3.55 µM [inhibitor, single point]",–
Cc1ccc(NC(=O)NCc2cccn2C)cc1C,–,inactive: -3.59%
COc1ccc(N(Cc2cccs2)C(=O)COc2cccc(C)c2C)cc1,"inconclusive: 35.5 µM [inhibitor, single point]",–
CCN1CCN(c2ncc3c(n2)CCN(CC(C)C)C3)CC1,–,inactive: 20.3%
Nc1nc(CN2CCN(Cc3ccccc3)CC2)nc(Nc2ccc3c(c2)OCCO3)n1,–,inactive: 13%
CC(=O)c1cccc(-c2ccnc3c2CC(C(=O)Nc2ccc(F)c(Cl)c2)O3)c1 (stereo unspecified),"inconclusive: 35.5 µM [inhibitor, single point]",–
Cc1ccc(N(C)C(=O)c2ccc3c(Cl)c4c(nc3c2)CCC4)cc1C,"inconclusive: 35.5 µM [inhibitor, single point]",–
CCOC(=O)N1CCc2c(sc(NCc3cccc(F)c3)c2C(=O)Nc2ccc(OC)cc2)C1,"inconclusive: 35.5 µM [inhibitor, single point]",–
CC(=O)NC(c1ccc(F)c(F)c1)c1nc(-c2cccc(C(=O)O)c2)cs1 (stereo unspecified),–,inactive: 16.7%
O=C(OCn1ncc(Br)c(Br)c1=O)c1ccc(F)cc1,active: 11.2 µM,–
C[n+]1c2n(c3ccccc31)N=C(c1ccccc1)CS2,"inconclusive: 35.5 µM [inhibitor, single point]",–
COc1cc(OC)c(NS(=O)(=O)c2c(C(=O)N3CCCCCC3)c(C)n(C)c2C)cc1Cl,–,inactive: 20.6%
O=C(C#Cc1ccccc1)c1ccccc1,active: 10 µM,–
Cc1ccc(OCCN2CCN(C(=O)CCC(=O)Nc3nnc(C(C)C)s3)CC2)cc1,–,inactive: -18.6%
CCc1nc2ccccc2n1CCC(C)C,"inconclusive: 3.16 µM [inhibitor, single point]",–
CC(=O)c1cc(C(=O)N2CCc3c([nH]c4ccccc34)C2C2CCCCC2)[nH]n1 (stereo unspecified),"inconclusive: 35.5 µM [inhibitor, single point]",–
COC(=O)c1ccc(-n2c(C)cc(C(=O)COC(=O)C3=COCCO3)c2C)cc1,–,inactive: 0%
Cc1cccc(Cn2c(=O)n(CCCC(=O)NCc3ccccc3Cl)c(=O)c3ccccc32)c1,"inconclusive: 7.08 µM [inhibitor, partial curve]",–
